Source: PubChem BioAssay AID1745845 (National Center for Advancing Translational Sciences (NCATS), 2022)
Several values for one entry are separate records, joined by “and”; a condition that tells them apart may be missing. Equal values may be shown once. About 2,600 (0.72%) of roughly 360,000 compounds were called active. Inconclusive means that the source gave no clear call. Such entries were picked first, then a sample of the others. Calls come from the whole dose curve; as a rule, active = well fitted inhibition curve with a large enough effect; inconclusive = small, poorly fitted or top-dose-only effect; inactive = no such curve, though single readings can be large or run the other way. Potencies beside an inconclusive call are fits to weak or partial responses and may not hold up.

test: Primary qHTS for Inhibitors of ATXN expression; details: HEK-293 ATXN2-luciferase reporter, luminescence, 24 h; activity change, negative = inhibition: at 57 µM (top of the series); note: nearly all actives have a fitted effect of over 55% in size
Source text: University of Utah School of Medicine, Salt Lake City, Utah
Spinocerebellar ataxia type 2 (SCA2) is a multisystem neurodegenerative disease caused by a dominantly acting mutation leading to expansion of a polyQ domain in the ataxin-2 protein (ATXN2). SCA2 patients develop progressive ataxia and later lose function in other neuronal systems. Prominent parkinsonian signs develop in some patients. Like many neurodegenerative disorders, no symptomatic or disease-modifying treatments are known.
The primary objective of the proposed research is to identify compounds inhibiting ATXN2 expression and to test them for efficacy in SCA2 mouse models. We have developed a cell-based assay paired with an in vivo mouse model using identical luciferase expression constructs. This approach takes advantage of an ATXN2-luciferase transgene, with the luciferase gene flanked by the upstream and downstream portions of the ATXN2 gene. Here we describe a 5-7 dose quantitative high thoroughput screen (qHTS) for compounds lowering ATXN2 expression. We screened the NIH Molecular Libraries Small Molecule Repository (MLSMR) and NCGC's mechanistically annotated (MIPE) and drug repurposing (NPC) collections of compounds for lowering expression of an ATXN2-luciferase reporter in HEK-293 cells. The assay is a multiplexed cell viability assay to ensure target reduction in the absence of cytotoxicity. Secondary qHTS assays included a CMV-luciferase reporter expressed in HEK-293 cells as well as a biochemical assay using recombinant luciferase to detect inhibitors of the reporter enzyme. Compounds that inhibit ATXN2 expression but is not cytotoxic were selected for confirmatory and secondary screens.
PROTOCOL TABLE (as described by Inglese J, Shamu CE and Guy RK. 2007)
SEQUENCE No. (e.g., 1, 2, 3, etc.); […] (e.g., Cells, Incubation, Reagent, etc.); VALUE; DESCRIPTION.
1; Cells; 4 uL; white, solid bottom, 1536-well Greiner assay plate.
2; Incubation; 2 hr; 37 degree C in 5% humidified CO2.
3; Compounds; 23 nL; Kalypsis pintool (Wako USA) equipped with a 1536-well pin head.
4; Incubation; 24 hr; 37 degree C in 5% humidified CO2.
5; Reagent; 1 uL; Gly-Phe-7-Amino-4-trifluoromethylcoumarin.
6; Incubation; 30 min; 37 degree C in 5% humidified CO2.
7; Detection; Fluorescence; ViewLux plate reader (PerkinElmer).
8; Reagent; 3 uL; SteadyGlo luciferase solution (Promega).
9; Incubation; 5 min; room temperature.
10; Detection; Luminescence; ViewLux plate reader (PerkinElmer).
NOTES (numbers refer to Sequence numbers above)
1. S2 cells expressing ATXN2-luciferase reporter were suspended in phenol-red free DMEM and dispensed in assay plates using a Multidrop Combi dispenser (Thermo Fisher Scientific).
2. Assay plates were incubated. Evaporation was prevented by covering assay plates with metal lids containing holes to allow gas diffusion.
3. Compounds were added in a dose response manner with the final concentrations of 57, 11.4, 2.28, 0.46, 0.091, 0.018, 0.0037 uM. Vehicle-only plates, with DMSO being pin-transferred to columns 5-48, were inserted uniformly at the beginning and the end of each library to monitor and record any shifts in assay performance.
5. 125 uM Gly-Phe-7-Amino-4-trifluoromethylcoumarin (MP Biomedicals) working concentration was used at a final concentration of 25 uM.
7. To assess cell viability; the assay plates were read using the ViewLux high-throughput CCD imager (PerkinElmer), wherein single end-point fluorescence measurement was acquired (excitation 405/10; emission 540/25 nm).
8. Detection reagent SteadyGlo Luciferase (Promega) was added to the assay plate.
10. Luminescence is then measured on the ViewLux imager equipped with a clear emission filter using a 2 sec exposure. All screening operations were performed on a fully integrated robotic system (Kalypsys) containing one RX-130 and two RX-90 anthropomorphic robotic arms (Staubli).
[…]
% is set by controls: 0 for no effect and ±100 for the full control effect; potency is the fitted concentration of half-maximal effect; tags give direction and shape of the fitted curve.

| SMILES | activity change, negative = inhibition | Potency |
| --- | --- | --- |
| C[C@@H]1CC[C@@]2(OC1)O[C@H]1C[C@H]3[C@@H]4CC[C@H]5C[C@@H](O)CC[C@]5(C)[C@H]4CC(=O)[C@]3(C)[C@H]1[C@@H]2C | inactive: 8.02% [at 5.55 µM] | – |
| O=C1COc2ccc(-c3cc(-c4ccccc4)c4c(n3)-c3cc(Cl)ccc3OC4)cc2N1 | – | inactive |
| Cc1ccc(C(=O)NCC(=O)N(C)CC(=O)Nc2c(Cl)cccc2Cl)s1 | – | inactive |
| CC(=O)Nc1nc2ccccc2n1Cc1ccc(Cl)cc1 | – | active: 17.8 µM |
| Cc1ccc(Oc2c(C(N)=O)cc([N+](=O)[O-])cc2[N+](=O)[O-])cc1 | – | inconclusive: 39.8 µM [inhibitor, single point] |
| CCN(CC)S(=O)(=O)c1cc(NC(=O)c2ccc3c(c2)NC(=O)C(C)S3)ccc1C (stereo not drawn) | – | inconclusive: 31.6 µM [inhibitor, single point] |
| CCOC(=O)c1cc(-c2ccncc2)nc2c1c(C)nn2-c1ccccn1 | – | inactive |
| CCCN(CCC)C(=O)Cn1c(=O)n(-c2ccc(Cl)cc2)c(=O)c2c3c(sc21)CCCC3 | – | inactive |
| COc1ccc(CNCCC(c2ccc(OC(C)C)cc2)c2ccccc2OC)cc1OC (stereo not drawn) | – | inactive |
| Cc1ccccc1NC(=O)CSc1nnc(-c2cccs2)o1 | – | inactive |
| CC1CCC(=C(C#N)c2nc(-c3cc4ccccc4oc3=O)cs2)CC1 (stereo not drawn) | – | inactive |
| CCOc1ccc(NC(=S)NC(=O)/C=C/c2ccc(C)cc2)c([N+](=O)[O-])c1 | – | inconclusive: 25.1 µM [inhibitor, single point] |
| Cc1oc(-c2cccc(Cl)c2)nc1Cn1c(SCc2ccccc2F)nc2ccncc21 | – | inactive |
| COc1ccc(/C=N/NC(=O)COc2cccc3ccccc23)c(C(=O)O)c1OC | – | inactive |
| CN(C)c1ccc(Cc2cc3c(O)ccc(O)c3cc(Cc3ccc(N(C)C)cc3)c2=O)cc1 | – | inconclusive: 28.2 µM [inhibitor, single point] |
| CCOc1ccc(OCC)c(NC(=O)Nc2ccc3c(c2)N(C)C(=O)CS3)c1 | – | inconclusive: 39.8 µM [inhibitor, single point] |
| O=C(O)c1cccc(N2C(=O)c3cc4cccc(Br)c4cc3C2=O)c1 | – | inconclusive: 12.6 µM [inhibitor, single point] |
| CC(Oc1ccc(Br)cc1)C(=O)Nc1cc(Cl)ccc1N1CCN(C)CC1 (stereo not drawn) | – | inconclusive: 20 µM [inhibitor, single point] |
| COc1ccc(/C=N/NC(=O)c2cc3c(ccc4ccccc43)o2)cc1OC | – | inconclusive: 28.2 µM [inhibitor, partial curve, poor fit] |
| O=C(CCN1CCN(c2ccc(F)cc2)CC1)Nc1ccccc1F | – | inactive |
| CS(=O)(=O)c1nc(-c2ccccc2)cc(C(F)(F)F)n1 | – | inconclusive: 39.8 µM [inhibitor, single point] |
| O=C(CCSCc1ccccc1F)NCc1ccc(F)cc1 | – | inactive |
| Cc1cccc(NC(=O)CSc2nc3ccc(NC(=O)COc4ccccc4F)cc3s2)c1 | – | inconclusive: 31.6 µM [inhibitor, single point] |
| Cc1cc(C(=O)CSc2nnc(-c3cccnc3)n2-c2ccccc2F)c(C)n1CC1CCCO1 (stereo not drawn) | – | inactive |
| CC1=C(C(=O)Nc2ccc(Cl)cc2)C(c2ccc(C(F)(F)F)cc2)n2nnnc2N1 (stereo not drawn) | – | inconclusive: 39.8 µM [inhibitor, single point] |

| SMILES | activity change, negative = inhibition | Potency |
| --- | --- | --- |
| CCc1cccc2c(C(=O)C(NC(C)CC)c3ccccc3)c[nH]c12 (stereo not drawn) | – | inactive |
| COc1cc(-c2nnc(-c3ccccc3)o2)cc(OC)c1OC | – | inactive |
| COc1ccc2nc(-c3ccccc3)[nH]c2c1 | – | inactive |
| c1ccc(CN2C3=NCCCN3c3ccccc32)cc1 | – | inactive |
| Cc1nc(N2CCOCC2)c2c(C)c(C(=O)Nc3ccc(C(F)(F)F)cc3)sc2n1 | – | inconclusive: 31.6 µM [inhibitor, single point] |
| Cc1ccc2cc(CN(Cc3ccc4c(c3)OCO4)Cc3nnnn3Cc3ccco3)c(=O)[nH]c2c1C | – | inactive |
| CCc1ccc(S(=O)(=O)c2c(C(=O)c3ccccc3)cnc3ccc(CC)cc23)cc1 | – | inconclusive: 39.8 µM [inhibitor, single point] |
| O=C(CCc1nc2ccccc2[nH]1)N1CCN(C(=O)c2ccco2)CC1 | – | inactive |
| O=C(CCl)N(c1ccccc1)C1CCCCC1 | – | inconclusive: 3.98 µM [inhibitor, partial curve, poor fit] |
| COc1ccc(N2C(=O)CC(Sc3ncn[nH]3)C2=O)c(OC)c1 (stereo not drawn) | – | active: 22.4 µM |
| CN(C/C=C/c1ccccc1)Cc1cccc2ccccc12 | – | inactive |
| O=C(Cc1ccccc1)N[C@H](c1ccccc1)P(=O)(O)CO | – | inactive |
| Cc1cc(N/N=C/c2ccc(O)c(C)c2O)nc(-c2ccccc2O)n1 | – | inconclusive: 10 µM [inhibitor, partial curve, poor fit] |
| COCCn1c(-c2ccc(OC)c(OC)c2)nc2ccccc21 | – | inconclusive: 7.08 µM [inhibitor, single point] |
| CCOCCCN(Cc1ccco1)C(=O)c1cc2c(=O)[nH]c3ccc(C)cc3c2s1 | – | inconclusive: 23.8 µM [inhibitor, single point] and inconclusive: 25.1 µM [inhibitor, partial curve] |
| CC(C)(C)Cc1c(-c2ccc(Cl)cc2)nc2ccc(Cl)cn12 | – | inconclusive: 28.2 µM [inhibitor, single point] |
| Cc1ccc2nc(NC(=O)C3CCN(S(=O)(=O)c4cccnc4)CC3)sc2c1 | – | inconclusive: 20 µM [inhibitor, single point] |
| Cc1cc(C)cc(NS(=O)(=O)c2ccc(NC(=O)c3ccccc3C(=O)O)cc2)c1 | – | inactive |
| CCOCCc1nnc(NC(=O)Cc2c(F)cccc2Cl)s1 | – | inactive |
| CCN(CC)S(=O)(=O)c1ccc2oc(SCC(=O)Nc3cc(C)on3)nc2c1 | – | inconclusive: 39.8 µM [inhibitor, single point] |
| CCOc1ccc(C(=O)OC(C)C(=O)N2CCN(Cc3ccccc3)CC2)cc1 (stereo not drawn) | – | inactive |
| COc1ccc(N2CCN(C(C)C(=O)N(C)Cc3ccccc3)CC2)cc1 (stereo not drawn) | – | inactive |
| C=CCNC(=O)/C(C#N)=C/c1ccc(OS(=O)(=O)c2ccc(C)cc2)c(OC)c1 | – | inconclusive: 25.1 µM [inhibitor, partial curve, poor fit] |
| COc1ccc(S(=O)(=O)N(CC(C)C)CC(C)C)c2cccnc12 | – | inconclusive: 25.1 µM [inhibitor, partial curve, poor fit] |
| CCOC(=O)C(=CNc1cc(C)ccc1C)C(=O)OCC | – | inactive |

| SMILES | activity change, negative = inhibition | Potency |
| --- | --- | --- |
| CSc1ccccc1OCc1cc(C(=O)N(C)CCn2nc(C)cc2C)no1 | – | inactive |
| Fc1ccc(CCNC(=S)Nc2ccc(F)c(Cl)c2)cc1 | – | inconclusive: 37.7 µM [inhibitor, single point] |
| Cc1nc(NC(=O)/C=C/c2ccccc2)sc1C(=O)Nc1cccc(Cl)c1 | – | inconclusive: 35.5 µM [inhibitor, partial curve, poor fit] |
| CCCc1nc2ccc(C(=O)OC)cn2c1Cc1ccccc1C(F)(F)F | – | inconclusive: 39.8 µM [inhibitor, single point] |
| Cc1ccc(C)c(N2CCN(C(=O)c3cc(S(=O)(=O)N4CCCCCC4)cn3C)CC2)c1 | – | inconclusive: 31.6 µM [inhibitor, single point] |
| COC(=O)c1ccc(NCc2cc(O)ccc2O)cc1 | – | inconclusive: 39.8 µM [inhibitor, single point] |
| Nc1nc(-c2ccccc2)nn1S(=O)(=O)c1ccccc1 | – | inconclusive: 3.77 µM [inhibitor, partial curve, poor fit] |
| C[C@H](CO)N1C[C@H](C)[C@@H](CN(C)C(=O)Nc2ccccc2)Oc2ccc(NC(=O)Nc3ccc(C(F)(F)F)cc3)cc2C1=O | – | inconclusive: 39.8 µM [inhibitor, partial curve, poor fit] |
| COc1ccc(Nc2nc(N3CCCC3)c3ccccc3n2)cc1 | – | active: 28.2 µM |
| Cc1cc(Cl)ccc1OCCCC(=O)NO | – | inconclusive: 24.3 µM [inhibitor, partial curve] |
| Cc1ccnc(NC(=O)CNC(=O)Cc2cccc3ccccc23)c1 | – | inconclusive: 39.8 µM [inhibitor, single point] |
| C=CCNc1ncnc2c1[nH]c1ccccc12 | – | inactive |
| Cc1nc(-c2cccc(NC(=O)c3cccc(S(=O)(=O)N4CCCC4)c3)c2)cs1 | – | inconclusive: 22.4 µM [inhibitor, single point] |
| O=c1[nH]c(=O)n([C@H]2C[C@@H](O)[C@@H](CO)O2)cc1F | – | active: 1.09 µM |
| O=C(Cc1ccc2c(c1)OCO2)NN=Cc1ccc([N+](=O)[O-])o1 | – | inconclusive: 14.1 µM [inhibitor, partial curve] |
| CCOC(=O)C(=O)N1CCC(Cc2ccccc2)CC1 | – | inactive |
| CNC(=O)c1ccc(Nc2cc(Nc3ccccc3S(=O)(=O)C(C)C)c3cc[nH]c3n2)nc1 | – | inconclusive: 3.85 µM [inhibitor, partial curve] |
| O=C(CSc1ccc(-c2ccco2)nn1)c1ccc(F)cc1 | – | inactive |
| CN(C)CCNc1cccc2sc3ccc(O)cc3c(=O)c12 | – | active: 17.8 µM |
| c1ccc(Nc2cc(-c3ccccc3)nc3ncnn23)cc1 | – | inactive |
| Cc1ccccc1C1c2[nH]c3ccccc3c2CCN1CCCn1cccn1 (stereo not drawn) | – | inconclusive: 15.8 µM [inhibitor, partial curve, poor fit] |
| COC(=O)c1sc(N)c(C(=O)OC)c1Cn1ncc(Cl)c(Cl)c1=O | – | inconclusive: 39.8 µM [inhibitor, single point] |
| O=C(NCCN1CCCCC1)c1ccc(F)cc1Cl | – | inactive |
